# Over roughly 33,000 sequences, “E-score (-0.5 to 0.5)” has its median near -0.035; the highest 2% begin near 0.34. This is one part of the list.
# Target: T1, Mot3 (UniProt P54785)
# T1 sequence: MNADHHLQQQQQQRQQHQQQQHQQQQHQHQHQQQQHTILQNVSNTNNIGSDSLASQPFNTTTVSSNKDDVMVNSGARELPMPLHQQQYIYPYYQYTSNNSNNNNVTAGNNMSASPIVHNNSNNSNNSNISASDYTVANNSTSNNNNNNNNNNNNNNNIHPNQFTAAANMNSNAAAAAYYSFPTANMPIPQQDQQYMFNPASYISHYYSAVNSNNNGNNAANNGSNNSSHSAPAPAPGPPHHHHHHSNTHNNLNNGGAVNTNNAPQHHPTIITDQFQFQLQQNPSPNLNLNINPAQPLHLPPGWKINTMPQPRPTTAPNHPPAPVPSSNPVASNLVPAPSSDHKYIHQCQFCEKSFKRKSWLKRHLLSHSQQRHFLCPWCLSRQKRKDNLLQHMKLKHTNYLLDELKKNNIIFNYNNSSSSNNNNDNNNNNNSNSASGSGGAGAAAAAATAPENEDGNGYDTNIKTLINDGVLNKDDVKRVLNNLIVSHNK
# Assay: PBM E-score (8-mer binding enrichment) (E-score (-0.5 to 0.5)); higher = stronger / more preferred TF binding; most listed sequences are background and not binding sites
# Details: protein concentration: 200 nM; construct: GST-full length
# Description: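 Universal 'all 10-mer' protein binding microarrays (Agilent AMADID 015681) probed with GST-tagged S. cerevisiae TFs (full-length or DBD) made by in vitro transcription/translation (PURExpress), about 100-200 nM. Bound TF was detected with fluorescent anti-GST. Each ungapped 8-mer (which stands for itself and its reverse complement) is scored by the PBM enrichment score (E-score), a modified Wilcoxon-Mann-Whitney statistic from -0.5 to +0.5, computed with the Universal PBM Analysis Suite. Scale: above 0.35 generally sequence-specific binding.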
row,Sequence,PBM E-score
1,CATGTAGG,0.374
2,ATGGATAA,-0.096
3,TTTAAAAA,0.0392
4,GACTATTA,-0.0916
5,ACCGTCGC,-0.0548
6,ACGCATAC,0.0884
7,CTATTGCA,0.0982
8,ACCTGTGG,0.165
9,ACATGACT,0.211
10,CGCAGTCA,0.212
11,CCATCGAA,-0.218
12,CACCAGTG,-0.126
13,CAGACTAG,-0.266
14,CTCAGGAG,-0.0888
15,ACGGCTGC,-0.214
16,CAGTTCCC,-0.174
17,CAGTTGGG,-0.163
18,ATAATCGA,-0.0585
19,AGAGTGGG,-0.334
20,ACTTCCGC,-0.226
21,CGCTGGAC,-0.111
22,AGTTTCAC,-0.0317
23,CGGAGGGC,-0.229
24,CTTCAATC,-0.141
25,ACATTAAT,0.218

row,Sequence,PBM E-score
1,CATTGCAC,0.142
2,CAATTCCC,0.0527
3,TGCGTCAA,0.0967
4,TCCGACGA,0.0283
5,GATTGTCA,-0.019
6,ATAACCCA,0.0362
7,AACCTAGC,0.06
8,AGAGAGAG,-0.326
9,CCGTTGGA,-0.319
10,ATTGAGCA,-0.104
11,AAGCTGTA,0.0641
12,AGAACCCT,-0.329
13,CTCCTAGA,-0.21
14,CAAATAGA,-0.0672
15,GTACAAGA,0.252
16,AGCTGTTA,0.0622
17,ACCCTCGA,-0.134
18,AAAATGAC,0.00342
19,GTGCAAAA,0.132
20,GAACCACC,-0.0832
21,AGTCAGCG,0.0306
22,ATCCAGAG,-0.128
23,ACTGCTGC,-0.23
24,GTCGGAGA,-0.0601
25,CTTGACGC,0.0474

row,Sequence,PBM E-score
1,TCCCCTAA,-0.214
2,TCGCAAGA,-0.161
3,CTTTTGCA,0.143
4,CACCCAAA,-0.0724
5,ACCAATAA,-0.00489
6,CTGCGTAA,0.302
7,TCCAGGAA,0.316
8,CCATAGGA,-0.101
9,AAATTCAG,-0.0726
10,AGCCGAAT,-0.166
11,AACGCTGG,-0.181
12,ACGTATTC,0.182
13,AGGTACGC,0.444
14,CCTTATCG,0.221
15,GCTTCGCC,-0.263
16,TACGTACA,0.331
17,AAGTCAGG,-0.0737
18,ACTTGCGG,-0.136
19,ACCAGCTG,-0.0736
20,AAGATAGA,0.034
21,CAGGTATA,0.0933
22,GGCCCCAA,-0.119
23,CGCTAGGC,-0.0267
24,CATATCAA,0.0245
25,GCTAGCCC,-0.29

row,Sequence,PBM E-score
1,TCGACAAA,0.106
2,ATTTTCAG,0.071
3,GGTAAGAA,0.0322
4,ATCCTCTA,0.119
5,AACCGAGA,-0.0641
6,AGTAATGC,0.174
7,CTCCCCAC,-0.182
8,ATTCGTAG,0.0879
9,CGAGGCTC,-0.266
10,CACGCGGG,0.176
11,CTAGCGGA,-0.00619
12,GTAAACCA,0.0644
13,GGATATTA,0.151
14,ACCTTACG,0.0787
15,AGATGCAT,-0.258
16,CAACTCAG,-0.0909
17,ATGGCTAG,-0.0925
18,AACGTCGG,-0.122
19,ATAGCTTA,0.0449
20,CATGATGC,-0.108
21,CCGTGCGC,-0.0705
22,AGGAGACC,-0.21
23,CGTGTGCC,0.23
24,ATGGCGCG,-0.00066
25,GCAGCCCC,-0.239

row,Sequence,PBM E-score
1,CTTCTGTA,0.132
2,CAGTTTCG,-0.34
3,GGTCCGAC,-0.298
4,AATGGAGC,-0.0694
5,GGGTTAAA,0.0824
6,AACTTCCC,-0.18
7,GCGACCGA,-0.00598
8,ATTTTTCA,-0.0862
9,AGAAGAGA,-0.102
10,AAGAAGTC,-0.0398
11,CATGCGCG,-0.0181
12,ATCGATCC,-0.161
13,CTACGAGA,-0.0304
14,ATGCTTGG,-0.0595
15,TAACCGCA,-0.0584
16,CGATCAAA,-0.286
17,AGGAATTA,0.167
18,CCTCCCCG,-0.125
19,CATAGCGG,-0.144
20,ATTTCCTC,-0.0476
21,AACTCGTA,0.0061
22,CGCTCTGC,-0.0977
23,CGAGCAGA,-0.218
24,CGAGAAAG,-0.0244
25,AAGTTTGC,0.194

row,Sequence,PBM E-score
1,ATCATGGA,-0.335
2,GCCGCGGC,-0.194
3,AACGCACA,0.204
4,TCAAGACA,-0.0248
5,AGTTTGGC,-0.0829
6,AATAAAAG,0.116
7,CCAAGTCA,-0.216
8,CCTGCTCC,0.12
9,AATCATGA,0.04
10,AAAAACTT,0.185
11,CGGGCCCC,-0.199
12,GGTGACAC,-0.238
13,AGGCGCCA,0.183
14,CCGAGGGA,-0.312
15,CCAGACCC,-0.284
16,ACCAGATG,-0.0432
17,CAGATTCG,0.0317
18,TCGCACGA,-0.141
19,GGGACTCA,-0.371
20,AAGCAAAA,0.0833
21,CACACGGG,0.232
22,GCTTCATA,-0.0945
23,CAAATACA,0.251
24,TAGAGAAA,-0.0644
25,GCGATAGC,-0.0697

row,Sequence,PBM E-score
1,CTAATTTC,0.035
2,CTGTGGGA,-0.103
3,CAAACAGG,0.231
4,CAGCGGGC,-0.233
5,CTCGAAAC,-0.176
6,AATACAAG,0.313
7,CAGCTCCA,-0.155
8,CCGCCCCC,-0.265
9,CGCGATTC,-0.127
10,AGATCACC,-0.0505
11,ACCGCATC,-0.286
12,CGAATCAG,-0.0911
13,TACCGGGA,-0.00163
14,AGTACAGA,-0.0538
15,AACATTAA,0.186
16,ACACTCGT,-0.0339
17,CTCATCTA,-0.243
18,AGTCCGAG,-0.063
19,ACAACCAT,0.241
20,AGCTCACC,-0.249
21,TACTACTA,0.097
22,CCACTGAG,-0.135

# Reference: the supplement of paper PMC3334620
